# Test results published in the supplement of paper PMC3334620.
# Whole data set: some 33,000 sequences, median “E-score (-0.5 to 0.5)” near -0.053, cut for the highest 2% near 0.37. The list shows a part of the results.
# Molecular target: Hap1 (UniProt P0CE41)
# Assay: PBM E-score (8-mer binding enrichment) (E-score (-0.5 to 0.5)); higher = stronger / more preferred TF binding; most listed sequences are background and not binding sites
# Settings: protein concentration: 200 nM; construct: GST-DNA-binding domain
# Outline: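 GST-tagged yeast TFs (full-length or DNA-binding domain) were made by PURExpress in vitro transcription/translation and applied at about 100-200 nM to universal all-10-mer Agilent arrays. The arrays were made double-stranded by primer extension, on fresh or once-stripped slides. Bound protein was detected with fluorescent anti-GST, and scans were normalised with masliner. Each ungapped eight-base word, pooled with its reverse complement, received an E-score (modified Wilcoxon-Mann-Whitney statistic) from the Universal PBM Analysis Suite.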
# Sequence of UniProt P0CE41 (P0CE41 whole entry): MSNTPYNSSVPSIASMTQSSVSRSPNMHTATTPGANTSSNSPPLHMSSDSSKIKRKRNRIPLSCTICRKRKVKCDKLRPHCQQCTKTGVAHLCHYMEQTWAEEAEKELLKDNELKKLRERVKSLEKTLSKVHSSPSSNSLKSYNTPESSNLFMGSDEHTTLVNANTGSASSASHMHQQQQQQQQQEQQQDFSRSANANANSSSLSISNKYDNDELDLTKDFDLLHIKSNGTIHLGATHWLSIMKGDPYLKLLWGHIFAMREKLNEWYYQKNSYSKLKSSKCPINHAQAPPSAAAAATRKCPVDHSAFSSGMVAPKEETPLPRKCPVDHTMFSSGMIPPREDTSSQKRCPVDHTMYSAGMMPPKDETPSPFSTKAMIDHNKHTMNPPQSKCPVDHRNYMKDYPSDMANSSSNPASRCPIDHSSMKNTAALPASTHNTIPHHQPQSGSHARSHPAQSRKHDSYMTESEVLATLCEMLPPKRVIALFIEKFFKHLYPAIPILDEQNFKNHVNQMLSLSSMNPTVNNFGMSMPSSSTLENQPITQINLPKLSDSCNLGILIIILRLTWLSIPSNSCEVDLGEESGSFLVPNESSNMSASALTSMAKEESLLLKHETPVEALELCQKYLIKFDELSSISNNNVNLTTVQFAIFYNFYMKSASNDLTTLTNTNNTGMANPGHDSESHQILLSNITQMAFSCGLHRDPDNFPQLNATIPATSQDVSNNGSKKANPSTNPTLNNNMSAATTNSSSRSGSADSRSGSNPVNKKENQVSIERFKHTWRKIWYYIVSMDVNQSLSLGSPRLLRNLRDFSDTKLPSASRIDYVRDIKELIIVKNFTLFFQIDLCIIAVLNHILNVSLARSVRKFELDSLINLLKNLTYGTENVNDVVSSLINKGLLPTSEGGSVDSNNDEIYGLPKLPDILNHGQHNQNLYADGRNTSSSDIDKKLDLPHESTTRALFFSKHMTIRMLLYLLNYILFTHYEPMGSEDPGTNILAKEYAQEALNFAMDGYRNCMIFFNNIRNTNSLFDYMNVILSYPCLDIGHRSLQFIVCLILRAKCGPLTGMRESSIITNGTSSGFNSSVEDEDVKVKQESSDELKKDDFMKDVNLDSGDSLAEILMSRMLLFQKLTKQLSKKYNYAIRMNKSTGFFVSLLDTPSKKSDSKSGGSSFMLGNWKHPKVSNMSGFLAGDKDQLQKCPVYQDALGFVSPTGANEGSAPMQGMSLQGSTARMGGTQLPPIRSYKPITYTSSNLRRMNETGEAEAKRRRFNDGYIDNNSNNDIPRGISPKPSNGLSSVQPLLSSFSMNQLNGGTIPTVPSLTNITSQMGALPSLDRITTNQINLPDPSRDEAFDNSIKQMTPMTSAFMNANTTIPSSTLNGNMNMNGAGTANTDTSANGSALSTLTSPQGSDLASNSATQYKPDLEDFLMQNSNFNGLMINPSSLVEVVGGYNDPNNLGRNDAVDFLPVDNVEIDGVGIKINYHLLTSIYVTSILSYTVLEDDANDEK
row,Sequence,PBM E-score
1,CCACGTGC,-0.26
2,GCATCAAA,-0.148
3,AAGACTAC,0.0593
4,ATAGACTA,-0.331
5,CCCACTAC,-0.0714
6,CATCTACA,-0.158
7,AAGCAAGT,-0.0508
8,ATCCAAGC,-0.227
9,GGGTCATA,-0.00686
10,AACACGGG,-0.0573
11,ACAAATCC,0.136
12,CCGTAAGC,0.115
13,GTGGTCGA,-0.228
14,AGACGCAC,-0.0101
15,CCTCGCCA,-0.206
16,GGCGGCTA,0.0808
17,AGATCCTA,-0.304
18,CACCTTGA,-0.0141
19,ACCCACGC,-0.00311
20,TTCGAGAA,-0.254
21,CCACGTGG,-0.282
22,CAATCTAA,-0.0312

row,Sequence,PBM E-score
1,AGTGTATA,-0.337
2,GAGTTCGC,0.195
3,ACTCCAGG,-0.00965
4,GCTAGTAA,-0.0325
5,CGCGTGAG,-0.0389
6,AGCGAGCT,0.135
7,AGGTTCAC,-0.119
8,GACCGGTA,0.243
9,AAACTACT,-0.0832
10,AAAGATGT,-0.104
11,CCTAGCCC,-0.0624
12,GAGGAGCC,-0.252
13,CGTTGATC,-0.0423
14,CACAGGCA,-0.245
15,AACGGAGA,0.357
16,ATATCGCG,0.314
17,CGTGCGTC,0.107
18,CATTCACC,0.228
19,CAAGGCTG,-0.416
20,GGCAGTCA,-0.0785
21,AACGTACA,-0.191
22,CGGCCGGC,0.422

row,Sequence,PBM E-score
1,GGTAACTA,0.166
2,CAGGAAAG,-0.244
3,CCTAAAAG,-0.318
4,ACGCGTGA,0.0483
5,ACTGTGGC,-0.309
6,AACGGCTC,0.199
7,AGCTGTCA,-0.173
8,CGCCTTAG,0.0658
9,CTCCACTC,-0.28
10,AACGCCCA,0.0103
11,CAGAAACC,-0.0171
12,CACAGGGA,-0.198
13,CGTTCGGA,0.412
14,AGCTCTAT,-0.177
15,AGGTAAAC,0.0335
16,CGTGCAAG,-0.176
17,GAATCCAC,-0.109
18,CATATCCG,0.343
19,CAACGTGC,-0.179
20,ATATAGCG,0.0252
21,CTCCGTCC,0.307
22,AGCACCAT,-0.246

row,Sequence,PBM E-score
1,GACAGCGA,-0.0893
2,GGATCACC,0.05
3,CTTAATTC,0.15
4,GGTTATTA,0.145
5,ATCACCCA,-0.0238
6,GTACGACA,-0.02
7,ACCTATTG,-0.136
8,GGAATCCC,0.0567
9,GCGGCTCC,-0.0125
10,AGCACCCG,0.13
11,CCGTGGCA,0.0571
12,ACGAATAT,-0.0622
13,CGCTTAGC,0.0439
14,AGGGACAC,-0.121
15,GGGGCTTA,0.186
16,CAGTCTGC,-0.192
17,ACGATAGC,0.0603
18,AAACACCG,0.388
19,AGCGACGC,-0.0688
20,ACTTTAGA,0.0341
21,ACTTCACG,-0.182
22,ACGCATTC,0.0114

row,Sequence,PBM E-score
1,CACAGATA,-0.256
2,AAAAGCAT,-0.0584
3,AATTCCGC,0.336
4,ATGACCAC,-0.0995
5,GATTCAAC,0.0615
6,GTGCGGAA,0.159
7,GGACCATA,0.124
8,ACCGATGA,0.223
9,ATACAACC,0.0766
10,CCCATTCA,0.0364
11,ACTTGAAA,-0.0915
12,AGGTTGTG,-0.338
13,ATGGCCGC,0.19
14,CACGTAGA,-0.228
15,CGTTTGGC,0.0309
16,GAACCCCA,0.117
17,CGACTAAC,0.0846
18,GCATACTA,-0.0297
19,CCTACCAG,-0.269
20,CCTAGCTA,-0.374
21,CCGGGTCA,0.3
